Measured values from PubChem BioAssay AID624296 (National Center for Advancing Translational Sciences (NCATS), 2012).
About 9,900 (2.8%) of roughly 350,000 compounds were called active. The inconclusive results got no clear call from the source; some entries with a clear call stand among them for comparison. The call rests on the fitted dose curve; in most records, active means well fitted activation curve with a large enough effect; inconclusive means small, poorly fitted or top-dose-only effect; inactive means no such curve, though single readings can be large or run the other way. No potency is given beside an inconclusive call; the fits are too rough.

Test: A quantitative high throughput screen for small molecules that induce DNA re-replication in MCF 10a normal breast cells. Further: nearly all actives have a fitted effect of over 50% in size. On activity, positive = re-replication: % of control where 0% means no effect.
Settings: MCF 10A DNA re-replication, Hoechst nuclear intensity, 48 h; activity, positive = re-replication: at 46.1 µM (top of the series)
Potency means the concentration at half of the fitted maximal effect; tags describe the fitted curve by direction and shape.

Row | SMILES | Potency | activity, positive = re-replication
1 | N=C(N)SCc1cn(-c2ccccc2)nc1-c1ccc(Br)cc1 | inconclusive [activator, single point] | 
2 | COc1ccccc1CNC(=O)N1CCN(S(=O)(=O)c2ccc(Cl)cc2)CC1 | inconclusive [activator, single point] | 
3 | Cc1ccc(NC(=O)c2c(C(F)(F)F)nn(C)c2SCc2ccc(Cl)cc2)cc1C | inconclusive [activator, single point] | 
4 | CC(NC(=O)CCSCCC(=O)NC(C)c1ccccc1)c1ccccc1 (centres undefined) |  | inactive: 15.2%
5 | COc1cccc2c1OCC(CN1CCN(Cc3ccccc3F)C(CCO)C1)=C2 (centres undefined) | active: 0.731 µM | 
6 | CC1CCC2C(=O)N(c3ccc(C(=O)Oc4cccc5cccnc45)cc3)C(=O)C2C1 (centres undefined) | inconclusive [activator, single point] | 
7 | Cc1ccc(NC(=O)C2CCN(C(=O)c3ccco3)CC2)cc1C |  | inactive: -3.32%
8 | COC(=O)c1cc(NC(=O)c2ccccc2)c(=O)oc1C/C=N\OCc1ccc(Cl)cc1Cl | inconclusive [activator, single point] | 
9 | COc1ccccc1CN(C)CC(=O)Nc1ccc(Cl)cc1F | active: 1.16 µM | 
10 | CCOc1ccccc1N1CCN(C(=O)c2ccc3c(c2)OCO3)CC1 |  | inactive: 19.8%
11 | COCCCNC(=S)N1CCN(C(=O)c2ccco2)CC1 |  | inactive: -5.79%
12 | O=C(CSc1ccc(Cl)cc1)N1CCN(c2ccc(Cl)cc2[N+](=O)[O-])CC1 | active: 18.4 µM | 
13 | O=C(CN1CCN(c2ccc(F)cc2)CC1)Nc1cc(C(F)(F)F)ccc1Cl | inconclusive [activator, partial curve, poor fit] | 
14 | COc1ccc(-c2cc(-c3ccccc3)n[nH]2)c(O)c1 | inconclusive [activator, partial curve, poor fit] | 
15 | O=C(NCCN1CCOCC1)c1ccc(CSc2nc3ccncc3n2Cc2ccc(F)cc2)cc1 |  | inactive: 16.3%
16 | Cc1ccc(-n2nnc3c(=O)n(Cc4cc(C)ccc4C)cnc32)cc1 |  | inactive: -1.12%
17 | CCOC(=O)c1c(C)[nH]c(C)c1S(=O)(=O)NCc1ccccc1C | inconclusive [activator, partial curve, poor fit] | 
18 | Cc1cccc(CCNC(=O)C2CCN(S(=O)(=O)N3CCOCC3)CC2)c1 | inconclusive [activator, single point] | 
19 | CCCC(=O)Nc1cccc(NC(=O)c2ccccc2Br)c1 | inconclusive [activator, partial curve, poor fit] | 
20 | COC(=O)CNC(c1ccccc1Cl)c1cc(Br)ccc1NC(=O)CCN1CCOCC1 (centres undefined) | inconclusive [activator, single point] | 
21 | COc1ccccc1NC(=O)CCCc1c[nH]c2ccccc12 | inconclusive [activator, single point] | 
22 | Cc1ccc(NC(=O)c2ccc(C(C)(C)C)cc2)cc1[N+](=O)[O-] | inconclusive [activator, single point] | 
23 | CCN1C(=O)/C(=C2/Sc3ccccc3N2CC)SC1=S |  | inactive: -6.1%

Row | SMILES | Potency | activity, positive = re-replication
24 | COc1ccccc1NC(=O)CSc1nc(O)cc(=O)n1C | inconclusive [activator, single point] | 
25 | CC1CN(C(=O)c2ccc(OC3CCN(Cc4ccccn4)CC3)cc2)CCN1C (centres undefined) |  | inactive: 23.5%
26 | Cc1cc(C)n(-c2ccc(C(=O)NCC(=O)Nc3cc(Cl)ccc3Cl)cc2)n1 |  | inactive: -3.93%
27 | O=C(Cn1c(=O)c2cccn2c2cccnc21)NCCCN1CCN(c2ccc(F)cc2)CC1 | inconclusive [activator, partial curve, poor fit] | 
28 | CC(C)OCCCn1c(=NC(=O)c2ccncc2)c(C#N)cc2c(=O)n3ccccc3nc21 |  | inactive: -8.15%
29 | CC1CC(C)CN(C(=O)/C(=C\c2ccccc2)c2ccccc2)C1 (centres undefined) | active: 20.6 µM | 
30 | CCN(CC)S(=O)(=O)c1ccc(N/N=C(\C)c2ccncc2)c([N+](=O)[O-])c1 | inconclusive [activator, full curve] | 
31 | Oc1c(C(c2ccccn2)N2CCOCC2)ccc2cccnc12 (centres undefined) | inconclusive [activator, full curve, poor fit] | 
32 | CCCCc1ccc(N/C(N)=N/c2nc(C)cc(C)n2)cc1 | inconclusive [activator, partial curve, poor fit] | 
33 | O=C(Oc1ccc(Br)cc1C(=S)N1CCOCC1)c1ccccc1 |  | inactive: -11.5%
34 | Cc1nnc(SCC(=O)c2cc(C)n(C3CC3)c2C)s1 | inconclusive [activator, full curve, poor fit] | 
35 | Cc1ccc(NC(=O)CN(C)C(=O)COC(=O)CNS(=O)(=O)c2ccc(Br)cc2Cl)cc1 |  | inactive: -1.08%
36 | O=C(c1nc2nc(-c3cccs3)cc(C(F)(F)F)n2n1)N1CCN(Cc2ccccc2)CC1 | inconclusive [activator, single point] | 
37 | C/C(=N\NC(=O)c1ccc(OC2CCCC2)cc1)c1ccc(O)cc1 | inconclusive [activator, full curve] | 
38 | Cc1ccc(/C=C/C(=O)OCC(=O)NC(=O)NCc2ccccc2)cc1 | inconclusive [activator, single point] | 
39 | O=C(C1CCCN(S(=O)(=O)c2cccc3nonc23)C1)N1CCC(Cc2ccccc2)CC1 (centres undefined) | inconclusive [activator, full curve] | 
40 | Cn1cccc1Cc1nnc(SCC(=O)NCCc2ccccc2)n1C |  | inactive: -1.34%
41 | Nc1cccc2c1C(=O)N(C(=O)/C=C/c1cccc(F)c1)C2=O | inconclusive [activator, single point] | 
42 | O=C(c1cnc2ccc3ccccc3c2c1)c1cc(F)ccc1O | inconclusive [activator, full curve, poor fit] | 
43 | COc1ccc(Nc2nc3ccc(OC)cc3s2)cc1 | inconclusive [activator, partial curve, poor fit] | 
44 | NC(=O)CC(NC(=O)c1ccccc1)c1ccc(N2CCCCCCC2)c([N+](=O)[O-])c1 (centres undefined) | inconclusive [activator, partial curve, poor fit] | 
45 | COc1cc(/C=N/NC(=O)CC2(C)OCCCO2)ccc1OCc1ccc(Cl)cc1Cl | inconclusive [activator, single point] | 
46 | Cc1ccc(S(=O)(=O)N2CCOCC2)cc1C(=O)Nc1ccc(N2CCCCCC2)cc1 | inconclusive [activator, single point] | 

Row | SMILES | Potency | activity, positive = re-replication
47 | Cc1ccc(-c2nnc(NC(=O)c3ccc([N+](=O)[O-])o3)o2)c(C)c1 | inconclusive [activator, single point] | 
48 | COC(=O)c1ccccc1NC(=O)Cn1nnc(-c2ccc(OC)cc2)n1 |  | inactive: 15.7%
49 | COc1cc(NC(=O)c2ccccc2F)ccc1NC(=O)c1cc2ccccc2o1 | active: 2.31 µM | 
50 | CS(=O)Cc1cc(Sc2ccccc2)nc(-c2ccncc2)n1 (centres undefined) | inconclusive [activator, single point] | 
51 | Cc1ccc(C)c(NC(=O)COC(=O)CNC(=O)c2ccccc2Cl)c1 |  | inactive: 2.96%
52 | COC(=O)c1csc2c(C(F)(F)F)cc(N3CCN(C(=O)Nc4ccccc4)CC3)nc12 | inconclusive [activator, single point] | 
53 | CN(CC(=O)Nc1ccc(N2CCOCC2)cc1)CC(=O)Nc1ccc(C(F)(F)F)cc1 | inconclusive [activator, partial curve, poor fit] | 
54 | COc1ccc(C(=O)N/N=C2/SCC(=O)N2Cc2ccc3c(c2)OCO3)cc1OC | inconclusive [activator, single point] | 
55 | COc1ccccc1NS(=O)(=O)c1cc(NC(=O)c2ccncc2)ccc1N1CCCC1 | inconclusive [activator, single point] | 
56 | CC(=O)c1cccc(N/C=C\C(=O)c2ccc(C)cc2)c1 | inconclusive [activator, partial curve, poor fit] | 
57 | Cc1cc(N2CCN(C(=O)c3ccco3)CC2)n2nc(-c3cccc(F)c3)cc2n1 | active: 23.1 µM | 
58 | CCCCCCCCCCOC(=O)Cn1c(COc2ccccc2C)[n+](C)c2ccccc21 | inconclusive [activator, single point] | 
59 | CCOC(=O)N1CCN(CCC(=O)c2ccc(OC)cc2)CC1 | active: 14.6 µM | 
60 | CCc1noc(C)c1C(=O)Nc1nc(-c2ccc(Cl)cc2Cl)cs1 | active: 16.4 µM | 
61 | CCCc1nc2ccccc2c(C(=O)OCC(=O)NCc2ccc3c(c2)OCO3)c1CC | active: 18.4 µM | 
62 | O=C1C(Cc2cccc([N+](=O)[O-])c2)SC(=Nc2ccccc2)N1c1ccccc1 (centres undefined) | inconclusive [activator, single point] | 
63 | COc1ccccc1C(=O)Nc1ccc2c(c1)nc(CCNC(=O)c1ccco1)n2C | inconclusive [activator, full curve] | 
64 | COc1ccccc1NC(=S)N(Cc1ccco1)Cc1cc2cccc(C)c2[nH]c1=O |  | inactive: 12.7%
65 | Cc1ccc(NC(=O)c2oc3ccccc3c2COC(C)C)cc1S(=O)(=O)N1CCOCC1 | inconclusive [activator, single point] | 
66 | COCCOc1cc(NCc2ccccc2)c2ncn(C(C)C)c2c1 |  | inactive: -2.86%
67 | CC(SCc1ccccc1)C(=O)Nc1ccccc1F (centres undefined) |  | inactive: 7.11%
68 | Cc1cc(CSc2ccc(Cl)cc2)ccc1N | inconclusive [activator, partial curve, poor fit] | 
69 | O=C(c1ccccn1)c1conc1C(=O)c1ccc(Br)cc1 | inconclusive [activator, single point] | 
